Reference: US20230250147A1 (Sanofi, published 2023)

T1: Mouse GLP-1R (mouse, UniProt O35659 22-463)
T1 sequence (looked up): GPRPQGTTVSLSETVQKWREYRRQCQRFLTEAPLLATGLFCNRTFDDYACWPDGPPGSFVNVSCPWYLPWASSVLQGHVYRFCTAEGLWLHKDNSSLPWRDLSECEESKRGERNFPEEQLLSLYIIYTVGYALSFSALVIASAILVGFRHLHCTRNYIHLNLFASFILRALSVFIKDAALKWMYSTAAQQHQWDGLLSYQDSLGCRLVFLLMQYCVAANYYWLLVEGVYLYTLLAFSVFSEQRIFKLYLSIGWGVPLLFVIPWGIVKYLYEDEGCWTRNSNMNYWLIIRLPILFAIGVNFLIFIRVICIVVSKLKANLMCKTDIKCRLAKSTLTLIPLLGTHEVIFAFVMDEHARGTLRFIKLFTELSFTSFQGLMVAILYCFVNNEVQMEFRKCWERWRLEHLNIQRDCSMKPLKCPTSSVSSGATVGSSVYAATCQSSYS


Assays:
Test in all cases: cell-based or functional assay
Monkey GLP-1R = Monkey GLP-1R (monkey)
[1] = biological target: human glucagon-like peptide-1 (GLP-1) receptor (human, UniProt P43220)
Mouse GLP-1R = biological target: T1, Mouse GLP-1R
[2] = biological target: T2, human FGFR1c together with human beta-Klotho (KLB) (human, UniProt P11362; Q86Z14)
[3] = biological target: T2, human FGFR1c together with human …; remark: listed apart in the source

Row | Binder | HTRF cAMP EC50 (Monkey GLP-1R) [pmol/L] | HTRF cAMP EC50 [1] [pmol/L] | HTRF cAMP EC50 (Mouse GLP-1R) [pmol/L] | pFGFR ICW EC50 [2] [nmol/L] | pERK ICW EC50 [3] [nmol/L]
1 | GLP-1RA/FGF21 Fc fusion protein SEQ ID NO: 39 (Fc fusion) HGEGTFTSDLSIQLEEEAVQEFIEWLLATGPSSGAPPPSGGGGGGGSGGGGSGGGGSA[… human IgG1 Fc with changes …]GGGSGSAHPIPDSSPLLQFGGQVRQRYLYTDDACQTEAHLEIREDGTVGGAADQSPESLLQLKALKPGVIQILGVKTSRFLCQRPDGALYGSLHFDPEACSFRELLLEDGYNVYQSEAHGLPLHLPGCKSPHRDPAPRGPARFLPLPGLPPAPPEPPGILAPQPPDVGSSDPLSMVGSQGRSPSYAS | 12.3 | 8.5 | 1.16 | 13.8 | 4.28
2 | GLP-1RA/FGF21 Fc fusion protein SEQ ID NO: 20 (Fc fusion) HGEGTFTSDLSKQLEEERVQEFIEWLKAGGPSSGAPPPSGGGGGGGSGGGGSGGGGSA[… human IgG4 Fc with changes …]GGGSGSAHPIPDSSPLLQFGGQVRQRYLYTDDACQTEAHLEIREDGTVGGAADQSPESLLQLKALKPGVIQILGVKTSRFLCQRPDGALYGSLHFDPEACSFRELLLEDGYNVYQSEAHGLPLHLPGCKSPHRDPAPRGPARFLPLPGLPPAPPEPPGILAPQPPDVGSSDPLSMVYPSQGRSPSYAS | 9.86 | 9.49 | 1.97 | 42.9 | 10.4
3 | GLP-1RA/FGF21 Fc fusion protein SEQ ID NO: 23 (Fc fusion) HGEGTFTSDLSIQLEEEAVQEFIEWLLATGPSSGAPPPSGGGGGGGSGGGGSGGGGSA[… human IgG4 Fc with changes …]GGGSGSAHPIPDSSPLLQFGGQVRQRYLYTDDACQTEAHLEIREDGTVGGAADQSPESLLQLKALKPGVIQILGVKTSRFLCQRPDGALYGSLHFDPEACSFRELLLEDGYNVYQSEAHGLPLHLPGCKSPHRDPAPRGPARFLPLPGLPPAPPEPPGILAPQPPDVGSSDPLSMVGSQGRSPSYAS | 70.7 | 78.7 | 3.32 | 54.6 | 8.6
4 | GLP-1RA/FGF21 Fc fusion protein SEQ ID NO: 24 (Fc fusion) HGEGTFTSDLSIQLEEEAVQEFIEWLLATGPSSGAPPPSGGGGGGGSGGGGSGGGGSA[… human IgG4 Fc with changes …]GGGSGSAHPIPDSSPLLQFGGQVRQRYLYTDDACQTEAHLEIREDGTVGGAADQSPESLLQLKALKPGVIQILGVKTSRFLCQRPDGALYGSLHFDPEACSFRELLLEDGYNVYQSEAHGLPLHLPGCKSPHRDPAPRGPARFLPLPGLPPAPPEPPGILAPQPPDVGSSDPLSMVYPSQGRSPSYAS | 43.5 | 48.8 | 2.66 | 25.3 | 8.39
